Literature values, collected in patent US20030125337A1, “Inhibitors of multidrug transporters” (priority 1998, published 2003).
Some entries of the source have several records that differ or are many. They are shown here; other results are not. The source may hold further records. Values given together seem to repeat one measurement (runs, samples, wells or individuals). What stands in brackets tells the records apart. A, B and so on number the origins entry by entry.

Test system: S. aureus, E. faecalis and S. pneumoniae
Details: cited from earlier work

For O=C(O)c1cn(C2CC2)c2cc(N3CCNCC3)c(F)cc2c1=O [ciprofloxacin], the MIC90 is given as 1-5 μg/ml [passage A] and 1-5 μ/ml [passage B].
